Experimental data: article PMC4558515, “Exploring the role of MKK7 in excitotoxicity and cerebral ischemia: a novel pharmacological strategy against brain injury” (Cell Death & Disease, 2015)

Tested on: MKK4 (P-MKK4/MKK4) in brain of MCAo rats
Details: 11 mg/kg 30 min before MCAO; n=3; two-way ANOVA interaction >0.05

## TAT-spacer-GADD45β60–86: cell-permeable MKK7 inhibitor peptide with spacer between TAT and GADD45β residues 60–86
  basal activity of MKK4 (P-MKK4/MKK4), in words: modest, but not significant, increase
